Measurements taken from PubChem BioAssay AID1345083 (National Center for Advancing Translational Sciences (NCATS), 2018).
Screen size: about 94,000 compounds; about 6,200 (6.6%) were called active. Inconclusive results, whose numbers are uncertain, are shown with a selection of clear calls. Calls come from the whole dose curve; as a rule, active = well fitted inhibition curve with a large enough effect; inconclusive = small, poorly fitted or top-dose-only effect; inactive = flat fitted curve, though single readings scatter. Where the call is inconclusive, the potency comes from a doubtful curve fit.

Assay: Cytotoxic Profiling in HEK 293 Cell Line of Diverse Libraries Using Quantitative High-Throughput Screening; note: nearly all actives have a fitted effect of over 60% in size
Conditions: HEK 293 viability, ATP luminescence (CellTiter-Glo), 48-72 h; series mostly up to 115 µM
In short: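 Cells seeded first (HEK 293, 250 cells/well), then compound added by pintool. Incubation ran 48 or 72 hr at 37 degree Celsius. CellTiter-Glo was added and luminescence imaged after 10 min at room temperature.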
Potency is the fitted concentration of half-maximal effect; tags give direction and shape of the fitted curve.

SMILES | Potency
Cc1noc(C)c1C1CCCN1C(=O)Cc1nc(-c2cccnc2)n[nH]1 (configuration not stated) | inactive
COc1ccccc1-c1cccc(C(=O)N2CCC[C@H]2C(=O)N2CCCCC2)c1 | inactive
O=C(NC1CCCC1)N1CCN(C(=O)c2nc3cccnc3n(C3CCCC3)c2=O)CC1 | inactive
O=C1COCC2(CN1Cc1cccc(OC(F)(F)F)c1)CN(C(=O)c1cn[nH]c1)C2 | inconclusive: 112 µM [inhibitor, partial curve, poor fit]
COc1ccc(N2CC3(COCC2=O)CN(c2ccc(C(F)(F)F)cn2)C3)cc1 | inconclusive: 112 µM [inhibitor, single point]
CCCn1c(C)cnc1CC1CCN(C(=O)C2(c3ccc(OC)cc3)CC2)C1 (configuration not stated) | active: 28.2 µM
CC(C)c1nc2c(c(-c3ccc(O)cc3)n1)CCN(C(=O)c1ccc(F)cc1)CC2 | inconclusive: 89.1 µM [inhibitor, partial curve, poor fit]
COC1CN(c2cccc(F)c2)C12CCN(C(=O)CCC1CCCC1)CC2 (configuration not stated) | inconclusive: 56.2 µM [inhibitor, partial curve, poor fit]
Cc1ccc(Nc2ccnc(N3CCCC(C(=O)NCCCc4ccccc4)C3)n2)cc1 (configuration not stated) | active: 5.01 µM
Cc1oc2ccn(Cc3ccccc3F)c(=O)c2c1C(=O)NC1CCCCC1 | inconclusive: 44.7 µM [inhibitor, partial curve, poor fit]
FC(F)(F)c1ccnc(N2CCOCC3(CN(Cc4ccccc4)C3)C2)n1 | inconclusive: 112 µM [inhibitor, partial curve, poor fit]
CNc1nccc(N2CCC(CC(=O)NCc3cccc(OC)c3OC)CC2)n1 | inconclusive: 56.2 µM [inhibitor, partial curve, poor fit]
COc1ccc(Nc2ccnc(N3CCC(C(=O)N4CCN(C(C)=O)CC4)CC3)n2)cc1 | inactive
O=C1CN(Cc2ccc(-c3cccs3)cc2)CCN1c1ccc(Cl)nn1 | inconclusive: 50.1 µM [inhibitor, partial curve, poor fit]
CN(C)C(=O)c1ccc(-c2cnc3[nH]cc(CC(=O)N4CCOCC4)c3c2)cc1 | inconclusive: 100 µM [inhibitor, partial curve, poor fit]
c1cncc(-c2ccnc(NCCCN3CCCc4ccccc43)n2)c1 | inconclusive: 50.1 µM [inhibitor, partial curve, poor fit]
Cc1ccc(NC(=O)CN2C(=O)NC3(CCCCC3)C2=O)cc1Cl | inconclusive: 31.6 µM [inhibitor, partial curve, poor fit]
Cc1noc2c(NCCN3CCOCC3)cc(-c3cccc(C(F)(F)F)c3)nc12 | inconclusive: 100 µM [inhibitor, partial curve, poor fit]
CCc1nc2c(c(-c3ccc(OC)cc3)n1)CCN(C(=O)c1ccccc1OC)CC2 | inactive
CN(Cc1ccccc1)Cc1cn([C@H]2CO[C@H]3[C@@H]2OC[C@@H]3NC(=O)c2ccc(C(F)(F)F)cc2)nn1 | inconclusive: 50.1 µM [inhibitor, partial curve, poor fit]
CC1(COc2ccccc2)COc2ccc(C(=O)N3CCOCC3)cc2N1 (configuration not stated) | inconclusive: 79.4 µM [inhibitor, partial curve, poor fit]

SMILES | Potency
COc1ccccc1CCC(=O)NC1CCN(c2cc(-c3ccccc3)[nH]n2)CC1 | inconclusive: 50.1 µM [inhibitor, partial curve, poor fit]
O=C(NCc1ccncc1)c1cc(C2CC2)nc2c1c(C1CCCN1)nn2-c1ccccc1 (configuration not stated) | active: 44.7 µM
COc1ccc(C(=O)NCCn2ccn3nc(-c4cc(C)ccc4C)cc3c2=O)c(OC)c1 | active: 39.8 µM
COc1ccc(-n2cc(CN3CCC(CO)CC3)c(-c3cccc(F)c3)n2)cc1 | inconclusive: 89.1 µM [inhibitor, partial curve, poor fit]
COCCNc1cc(-c2cccc(C(F)(F)F)c2)nc2c(C)noc12 | active: 89.1 µM
CCc1cc(=O)n(CC(=O)Nc2ccc3c(c2)OCCO3)c(-c2cccc(F)c2)n1 | inconclusive: 22.4 µM [inhibitor, full curve]
O=C(N[C@H]1CCN2C(=O)c3cc(-c4ccccc4)ccc3NC(=O)[C@H]12)C1CCCC1 | inconclusive: 112 µM [inhibitor, partial curve, poor fit]
CCOCc1nc(C2CCCN(C(=O)Nc3ccccc3OCC)C2)no1 (configuration not stated) | inactive
CN1CCN(C(=O)CCCOc2ccccc2)CC12CCNC(=O)CC2 (configuration not stated) | inconclusive: 89.1 µM [inhibitor, partial curve]
c1ccc(CNC[C@H]2COCc3nc4ccccc4n32)cc1 | inconclusive: 79.4 µM [inhibitor, partial curve]
CCn1nccc1C(=O)N1CCN(c2cc(-c3ccccc3)[nH]n2)CC1 | inconclusive: 20 µM [inhibitor, full curve]
Cn1ccnc1CN1C(=O)CO[C@H](c2ccc(N)cc2)[C@H]1CO | inconclusive: 100 µM [inhibitor, partial curve, poor fit]
CN(Cc1ccc(F)cc1)Cc1ccc(N(C)C)cc1 | inconclusive: 112 µM [inhibitor, partial curve, poor fit]
COc1cccc(C(=O)NC2CCN(c3ccnc4ccnn34)C2)c1 (configuration not stated) | inconclusive: 56.2 µM [inhibitor, partial curve, poor fit]
CC(C)c1nc2c(c(-c3ccc(O)cc3)n1)CCN(Cc1ccsc1)CC2 | inconclusive: 50.1 µM [inhibitor, partial curve, poor fit]
CN1C[C@@H]2CCCN3CCC[C@@H]([C@H]23)[C@H]1CCCC(=O)NCCC1=CCCCC1 | inconclusive: 70.8 µM [inhibitor, partial curve, poor fit]
C[C@@H]1CN(C(=O)c2cccnc2N(C)C2CCCCC2)C[C@@]1(O)C1CCC1 | inconclusive: 89.1 µM [inhibitor, single point]
Cc1nc(N2CCN(C(=O)c3cccc(Cl)c3)CC2)cc(C(F)(F)F)n1 | inconclusive: 50.1 µM [inhibitor, partial curve, poor fit]
Cc1ccc(C2c3cc(OCc4nc(C(=O)NCC5CC5)co4)ccc3CCN2C(=O)C2CC2)cc1 (configuration not stated) | active: 35.5 µM
COCCN1C(=O)CS(=O)C12CCN(C(=O)c1cccc3[nH]ccc13)CC2 (configuration not stated) | inconclusive: 79.4 µM [inhibitor, single point]
O=C(NCc1cccc(Cl)c1)c1cc(-c2ccc(F)cc2)c2nncn2n1 | inconclusive: 89.1 µM [inhibitor, single point]

SMILES | Potency
CCOC(=O)C1CCN(C(=O)c2cc(-c3ccc(F)cc3)c3nncn3n2)CC1 | inactive
COCCNC(=O)c1cnc2n[nH]c(-c3ccccc3OC)c2n1 | inactive
O=C(Cc1ccccc1)N1CCC(Oc2cnc3c(ccn3-c3cncnc3)c2)CC1 | active: 56.2 µM
COc1ccc(CN(C(=O)c2ccco2)c2ccc(CC(=O)NCCc3ccccc3)cc2)cc1 | inconclusive: 25.1 µM [inhibitor, full curve, poor fit]
CNc1nccc(N2CCC(CC(=O)NCc3ccncc3)CC2)n1 | inconclusive: 100 µM [inhibitor, single point]
O=C(Nc1cccc(F)c1)C1=NO[C@@H]2CN(c3ccccn3)C[C@H]12 | inconclusive: 89.1 µM [inhibitor, partial curve]
COc1cccc(C(=O)NC2CCCN(c3ccc4nnc(C)n4n3)C2)c1 (configuration not stated) | inconclusive: 50.1 µM [inhibitor, partial curve, poor fit]
CCN1c2cc(C(=O)NC3CCCCCC3)ccc2C(=O)N2CCCCC21 (configuration not stated) | inconclusive: 50.1 µM [inhibitor, partial curve, poor fit]
CCC1Oc2ccc(NC(=O)c3ccccc3F)cc2CN(Cc2ccc3c(c2)OCO3)C1=O (configuration not stated) | inconclusive: 79.4 µM [inhibitor, partial curve, poor fit]
COc1ccc(CNC(=O)c2cc3c(n2C)CCN(Cc2ccccc2)C3)cc1OC | active: 39.8 µM
COc1ccccc1N1CCN(C(=O)C[C@@H]2CCNC[C@@H]2Cc2cc(COc3ccccc3)on2)CC1 | inconclusive: 50.1 µM [inhibitor, partial curve, poor fit]
CNC(=O)c1cc(C2CC2)nc2onc(C3CCN(C(=O)Nc4ccc(C)c(F)c4)C3)c12 (configuration not stated) | active: 44.7 µM
N#Cc1cccc(CN2CCc3ncc(C(=O)NCc4ccccc4)n3CC2)c1 | inconclusive: 5.62 µM [inhibitor, full curve, poor fit]
Cc1ccc(C(=O)N2CCCN(c3cc(-c4ccc(Cl)cc4)[nH]n3)CC2)cn1 | inconclusive: 89.1 µM [inhibitor, partial curve, poor fit]
Cc1ccc(OCC(=O)N2CCC(Cc3nc(-c4ccc(F)cc4)no3)CC2)cc1 | inconclusive: 44.7 µM [inhibitor, partial curve, poor fit]
Cc1ccc(CN2C(=O)NC3(CCCN(C(=O)c4ccc5c(c4)OCO5)C3)C2=O)cc1 (configuration not stated) | inactive
Cc1cc(C(=O)N2CC(c3nnc(-c4ccncc4)o3)C3(CCOCC3)C2)nn1C (configuration not stated) | inactive
COc1cccc(-c2noc(Nc3ccc4c(c3)OCO4)n2)c1 | inconclusive: 56.2 µM [inhibitor, partial curve, poor fit]
CO[C@H]1[C@H](NC(=O)c2c(F)ccc(C)c2F)c2ccccc2C12CCNCC2 | inactive
CC(C)(C)C(=O)N1CCCC(c2nn(-c3ccc(F)cc3)c(=O)[nH]2)C1 (configuration not stated) | inactive
